PMC4336329 (PLoS ONE, 2015)
In all, about 310,000 compounds went through this assay and about 2,200 (0.71%) showed an effect of 50% or more. The effect is printed as a negative number. This is one part of the list.

target: human ether-à-go-go-related gene (hERG) potassium channel (human, UniProt Q12809); experiment: primary screen, population patch clamp on CHO cells stably expressing hERG
Sequence (Q12809 whole entry, looked up): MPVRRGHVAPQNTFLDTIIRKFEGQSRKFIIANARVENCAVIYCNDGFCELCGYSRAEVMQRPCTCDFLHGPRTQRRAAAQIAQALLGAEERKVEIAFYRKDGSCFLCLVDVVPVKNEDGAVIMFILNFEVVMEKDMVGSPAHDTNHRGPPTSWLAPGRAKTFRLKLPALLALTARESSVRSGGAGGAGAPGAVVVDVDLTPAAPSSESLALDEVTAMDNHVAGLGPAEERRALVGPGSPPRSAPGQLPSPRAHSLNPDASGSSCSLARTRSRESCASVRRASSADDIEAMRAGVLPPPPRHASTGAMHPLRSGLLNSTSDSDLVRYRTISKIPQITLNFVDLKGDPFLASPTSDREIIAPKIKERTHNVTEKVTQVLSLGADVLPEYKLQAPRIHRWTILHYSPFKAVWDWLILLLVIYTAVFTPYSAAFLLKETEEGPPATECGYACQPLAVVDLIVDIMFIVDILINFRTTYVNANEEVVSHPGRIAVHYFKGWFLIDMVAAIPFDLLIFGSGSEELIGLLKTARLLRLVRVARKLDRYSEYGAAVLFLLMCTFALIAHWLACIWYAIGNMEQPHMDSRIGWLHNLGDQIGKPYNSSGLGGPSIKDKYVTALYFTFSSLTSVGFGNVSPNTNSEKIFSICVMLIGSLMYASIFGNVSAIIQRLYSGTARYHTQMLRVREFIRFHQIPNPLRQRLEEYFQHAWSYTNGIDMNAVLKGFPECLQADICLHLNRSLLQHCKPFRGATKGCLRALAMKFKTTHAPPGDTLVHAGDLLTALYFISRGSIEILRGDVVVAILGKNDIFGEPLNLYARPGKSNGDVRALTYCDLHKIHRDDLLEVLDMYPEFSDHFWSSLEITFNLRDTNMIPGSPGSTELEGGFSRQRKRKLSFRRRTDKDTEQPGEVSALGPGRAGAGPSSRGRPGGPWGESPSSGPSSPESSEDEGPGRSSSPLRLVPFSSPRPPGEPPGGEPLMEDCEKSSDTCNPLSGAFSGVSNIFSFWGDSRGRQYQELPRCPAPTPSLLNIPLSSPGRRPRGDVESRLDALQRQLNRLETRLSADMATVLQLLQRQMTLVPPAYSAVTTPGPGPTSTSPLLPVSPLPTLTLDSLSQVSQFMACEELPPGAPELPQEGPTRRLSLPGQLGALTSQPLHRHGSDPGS

Compound | hERG current change (%, negative = inhibition) at 1uM
O=C(CCc1nc2ccccc2c(=O)[nH]1)NCc1cccc(Cl)c1 | 5.42%
CCC(=O)n1nc(NCc2ccccc2OC)nc1NCc1ccccc1OC | 9.08%
O=S(=O)(Nc1ccc2ccccc2n1)c1ccccc1 | 12%
Cc1c(C(=O)NCCc2ccccc2)oc2ccc(S(=O)(=O)N3CCC4(CC3)OCCO4)cc12 | -1.39%
CCc1nnc(NC(=O)C2CCN(C(=O)c3ccco3)CC2)s1 | 9.08%
COc1ccc(N(C)S(=O)(=O)c2cccc(C(=O)N(C)Cc3ccc(C)o3)c2)cc1 | -0.931%
O=C(CCn1cnc2ccccc2c1=O)Nc1ccc(Cl)c(Cl)c1 | 4.38%
COc1cc(CCCN2C(=S)NC[C@H]2Cc2ccc(O)cc2)cc(OC)c1OC | -5.44%
O=C(Nc1ccncc1)c1ccc2c(c1)C(=O)N(C1CCCCC1)C2=O | 13.8%
CC(=O)c1cc2c(cc1NC(=O)Nc1cccc(Cl)c1)OCCO2 | 4.57%
CCC(CC)c1nnc(NC(=O)COc2ccc3c(C)cc(=O)oc3c2)s1 | 2.78%
CCOC(=O)Nc1ccc2c(c1)N(C(=O)N1CCN(C)CC1)c1ccccc1CC2.Cl | -0.261%
CCOc1ccccc1C(=O)Nc1cc(C(=O)NCC(C)C)ccc1Cl | 7.35%
CN(Cc1ccccn1)C(=O)C1CCC(=O)N(Cc2cccc(C(F)(F)F)c2)C1 (centres unmarked) | 1.14%
CCCCOc1ccc(-c2nnc(-c3cc[n+](C)cc3)o2)cc1.O=S(=O)([O-])c1ccccc1 | 1.92%
COc1ccc(S(=O)(=O)N(C)Cc2ccc3c(c2)OCCO3)cc1 | 8.71%
O=C(NNC(=O)c1cccnc1)Nc1ccccc1 | 5.59%
CCOP(=O)(OCC)C(NC(=O)Nc1ccccc1)C(N)=O (centres unmarked) | 11.8%
FC(F)Sc1ccc(NC(=S)NC2CCC(NC(=S)Nc3ccc(SC(F)F)cc3)CC2)cc1 (centres unmarked) | 5.27%
Cc1ccc(/C=C/C2=NN(Cc3ccccc3)C(=O)CC2)cc1 | 9.12%
Cn1c(CNC(=O)c2ccc(Cl)cc2)nnc1SCC(=O)NC1=NCCS1 | 12.4%
O=C(OCC(=O)N1CCN(c2ccccc2)CC1)c1ccccc1OC(F)F | 11.5%
COCCn1c(SCc2cnc(-c3ccccc3)s2)nnc1-c1ccncc1 | 5.84%

Compound | hERG current change (%, negative = inhibition) at 1uM
Cc1ccc(OCCNC(=O)CN2C(=O)NC3(CCCC3)C2=O)cc1 | 12.2%
CC(=O)NCC(=O)O.CN(C)CCC1c2ccc(Cl)cc2CCc2cccnc21 (centres unmarked) | 3.16%
Cn1c(=O)[nH]c(=O)c2c1nc(N)n2Cc1ccccc1 | 3.22%
CCCN(CC(=O)Nc1ccccc1C)C(=O)COc1c(Cl)cccc1Cl | 4.81%
C=CCN=c1scc(-c2ccc(F)cc2)n1/N=C/c1ccccn1 | 11%
CC(=O)C1=C(O)CCCC1=NCc1nc2ccccc2[nH]1 | 12.3%
O=C(COC(=O)C12CC3CC(CC(C3)C1)C2)NCc1ccco1 | -0.748%
CCC1(c2ccccc2)NC(=O)N(CC(=O)N(C)CC(=O)Nc2cccc(F)c2)C1=O (centres unmarked) | 12.4%
Cc1nc(C)c(-c2ccc(SCC(=O)Nc3cccc(Cl)c3C)nn2)s1 | 10.4%
CCN(C(=O)COC(=O)CCC(=O)c1ccccc1)c1c(N)n(Cc2ccccc2)c(=O)[nH]c1=O | 13.4%
COc1cccc(-n2c(=O)n(Cc3ccccc3)c(=O)c3[nH]cnc32)c1 | 7.22%
COc1cccc(NC(=O)CSc2nnc3cc(C)nc(N)n23)c1 | 9.33%
O=C(COc1ccc2ccccc2c1)NNC(=O)Nc1ccc(F)cc1F | 12.5%
COc1ccc(OC)c(NC(=O)C2CCCCC2C(=O)O)c1 (centres unmarked) | 6.86%
COc1ccccc1NC(=O)N1CCN(c2ccc(F)cc2)CC1 | 0.344%
Cc1cccc(NC(=S)NCCN2CCOCC2)c1 | 5.19%
O=C(NC1CCc2ccccc21)c1cc(COc2ccc(F)cc2F)on1 (centres unmarked) | 15.5%
COc1ccc(S(=O)(=O)N(C)CC(=O)NCCN2CCOCC2)cc1Cl | 9.74%
O=C1CC(c2ccccc2)CC(O)=C1C=NC1CCCCC1 (centres unmarked) | -8.72%
Cc1cccn(Cc2c(F)cccc2Cl)c1=O | 9.07%
Cc1ccc(C(=O)NC(=S)Nc2ccccc2N2CCCC2)cc1[N+](=O)[O-] | 7.01%
CN(C)c1nc2c(c(=O)n(C)c(=O)n2C)n1Cc1ccccc1 | -0.913%
CCCc1cc(=O)oc2cc(C)cc(O)c12 | 4.71%

Compound | hERG current change (%, negative = inhibition) at 1uM
O=C(CSc1nnc(CNC(=O)c2cccs2)o1)NC1CCCC1 | 3.8%
O=C(Nc1ccccc1Cc1ccccc1)c1ccccc1NS(=O)(=O)c1ccc(Cl)s1 | 4.17%
COc1c(O)cc2oc(-c3ccc(O)cc3)cc(=O)c2c1O | 8.67%
O=C(N/N=C/c1oc(O)c2ccccc12)c1ccccc1O | 7.69%
Cc1cc(C)c(S(=O)(=O)Nc2cccc3nsnc23)c(C)c1 | 4.84%
Clc1ccc(CSc2nnc(-c3cccnc3)o2)cc1 | 0.623%
COc1cc(NC(C)CCCN)c2ncccc2c1.O=P(O)(O)O (centres unmarked) | 7.15%
Cn1c(SCn2nnc3ccccc3c2=O)nc2ccccc2c1=O | 18.4%
Cc1cccnc1NC(=O)c1ccc2c(c1)OCCO2 | 12.3%
O=C(CN1CCN(c2ccccc2F)CC1)c1ccc(O)c(O)c1 | -16.6%
Cc1nn(-c2ccccc2)c(C)c1C(=O)OCC(=O)NC12CC3CC(CC(C3)C1)C2 | 13.2%
Cc1nnc(SCC(=O)NC2CC2)n1CC1CCCO1 (centres unmarked) | 9.24%
CC(=O)N(Cc1cc(=O)[nH]c2ccccc12)c1ccc(C)cc1C | 13%
CCCN1C(=O)N(c2cccc(C)c2)C(C)(O)CC1(C)C (centres unmarked) | 8.46%
O=C(COC(=O)/C=C/c1ccco1)Nc1cccc([N+](=O)[O-])c1 | 20.3%
O=C(COC(=O)c1c2c(nc3ccccc13)CCN(Cc1ccccc1)C2)Nc1c(F)cccc1F | -20.2%
Cc1[nH]c2ccccc2c1/C=N/NC(=O)CNC(=O)COc1ccccc1 | 20.7%
CC([NH2+][O-])C(C)(C)NO.[Cl-] (centres unmarked) | 4.02%
O=S(=O)(c1ccc(S(=O)(=O)N2CCCC2)cc1)N1CCCCC1 | 12.8%
CCc1sc(C(=O)Nc2ncccc2C)cc1C | 17.3%
O=S(=O)(Nc1cccc(CO)c1)c1cccs1 | 6.77%
Cc1ccc(S(=O)(=O)NCCn2cnc([N+](=O)[O-])n2)cc1 | 12.2%
N#CC1(c2ccccc2)CCCN1C(=O)c1ccc(Br)cc1 (centres unmarked) | 0.778%

Compound | hERG current change (%, negative = inhibition) at 1uM
O=C(COc1ccccc1[N+](=O)[O-])N1CCN(S(=O)(=O)c2ccccc2)CC1 | -10.5%
Cc1cccc(-c2nc(CS(=O)CC(=O)N3CC(C)CC(C)C3)c(C)o2)c1 (centres unmarked) | 0.514%
Cn1ccnc1SCC(=O)Nc1ccc2nc(SCC(=O)NC3CC3)sc2c1 | 7%
Cc1ccc(C2(C)NC(=O)N(CC(=O)Nc3ccccc3C(=O)NC3CCCC3)C2=O)cc1 (centres unmarked) | -2.04%
O=C(O)CC[N+](=O)[O-] | 15.1%
O=C(C[n+]1ccc(/C=N/O)cc1)NCc1ccccc1.[Cl-] | 8.7%
COc1ccc(N2C(=O)c3ccccc3NC2c2cccnc2)cc1 (centres unmarked) | 17.5%
CC1Cc2nc(SCC(=O)NCC3CCCO3)n(Cc3ccccc3)c(=O)c2S1 (centres unmarked) | -4.07%
CC(=O)c1ccc(S(=O)(=O)NC2CCCCCCC2)cc1 | 12.4%
OC(CN1CCN(c2ccccc2)CC1)c1c[nH]c2ccccc12 (centres unmarked) | -13.8%
O=S(=O)(NCC1CCCO1)c1cccc(S(=O)(=O)N2CCCC2)c1 (centres unmarked) | -1.28%
CCC1(c2ccc(F)cc2)NC(=O)N(CC(=O)N2CCN(S(=O)(=O)c3ccc(Cl)cc3)CC2)C1=O (centres unmarked) | 10%
COc1ccc(-c2cccc(NS(=O)(=O)c3ccccc3[N+](=O)[O-])c2)nn1 | 14.2%
Cn1ccnc1C1CCCCN1Cc1nc(Cc2ccccc2F)no1 (centres unmarked) | 2.45%
COC(=O)c1ccccc1OCc1cccc(C)n1 | 7.79%
CCCCCC(=O)Nc1ncc2c(n1)CC(c1cccs1)CC2=O (centres unmarked) | -9.38%
CCN(CC)Cc1c(O)ccc2c(=O)c(-c3ccccc3)coc12.Cl | 11.8%
N#CCCN1CCCc2cc(N=Nc3ccc(C(F)(F)F)cc3)ccc21 | 14.6%
O=[N+]([O-])c1ccc(Oc2cccc3cccnc23)c(Cl)c1 | 10.5%
Cc1cccc(NC(=O)CN2C(=O)S/C(=C\C(=O)Nc3ccc(Cl)cc3)C2=O)c1 | 5.18%
